In article PMC4336329 (PLoS ONE, 2015):
Among all 310,000 compounds or so, about 2,200 (0.71%) showed an effect of 50% or more. The effect is printed as a negative number. The list shows a part of the results.

What follows are compounds tested against human ether-à-go-go-related gene (hERG) potassium channel (human, UniProt Q12809) (assay: primary screen, population patch clamp on CHO cells stably expressing hERG).
Chain of human ether-à-go-go-related gene (hERG) potassium channel (Q12809 whole entry, looked up): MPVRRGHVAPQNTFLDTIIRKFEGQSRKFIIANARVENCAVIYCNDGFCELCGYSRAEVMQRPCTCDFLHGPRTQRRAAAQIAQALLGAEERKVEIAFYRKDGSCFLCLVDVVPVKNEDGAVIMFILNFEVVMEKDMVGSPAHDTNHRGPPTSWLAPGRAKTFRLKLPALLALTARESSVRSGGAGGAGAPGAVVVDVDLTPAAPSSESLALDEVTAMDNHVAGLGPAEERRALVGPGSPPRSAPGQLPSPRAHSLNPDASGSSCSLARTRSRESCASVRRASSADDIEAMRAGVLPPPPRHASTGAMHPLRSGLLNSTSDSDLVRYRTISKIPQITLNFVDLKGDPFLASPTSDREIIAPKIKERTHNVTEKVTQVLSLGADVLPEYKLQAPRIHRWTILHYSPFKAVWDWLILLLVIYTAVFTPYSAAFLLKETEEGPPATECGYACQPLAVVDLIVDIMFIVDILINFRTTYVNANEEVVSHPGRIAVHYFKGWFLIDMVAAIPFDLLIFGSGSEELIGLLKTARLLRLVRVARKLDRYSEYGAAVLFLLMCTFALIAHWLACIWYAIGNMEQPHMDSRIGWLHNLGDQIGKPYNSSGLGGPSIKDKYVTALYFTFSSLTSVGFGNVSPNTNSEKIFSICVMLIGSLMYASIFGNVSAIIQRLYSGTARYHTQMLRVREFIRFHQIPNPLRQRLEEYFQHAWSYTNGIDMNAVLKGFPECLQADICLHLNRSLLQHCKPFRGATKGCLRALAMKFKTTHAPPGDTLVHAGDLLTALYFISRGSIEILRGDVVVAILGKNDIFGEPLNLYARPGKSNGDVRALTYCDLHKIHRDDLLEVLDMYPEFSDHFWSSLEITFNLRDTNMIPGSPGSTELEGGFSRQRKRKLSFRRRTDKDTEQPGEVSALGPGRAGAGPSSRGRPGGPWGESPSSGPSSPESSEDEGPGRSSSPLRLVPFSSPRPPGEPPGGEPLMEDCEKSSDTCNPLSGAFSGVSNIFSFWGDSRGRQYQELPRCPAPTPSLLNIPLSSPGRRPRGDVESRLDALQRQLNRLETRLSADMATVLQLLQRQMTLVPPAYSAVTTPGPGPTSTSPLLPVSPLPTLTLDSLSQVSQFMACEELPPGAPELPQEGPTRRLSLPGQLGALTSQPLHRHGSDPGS

| Structure (SMILES) | hERG current change (%, negative = inhibition) at 1uM [%] |
| --- | --- |
| Cc1cc(C)c(NC(=O)CN2C(=O)NC(Cc3ccccc3)C2=O)c(C)c1 (stereo not shown) | 11.3 |
| O=S(=O)(/N=C/c1ccccc1O)c1cccs1 | 10.7 |
| CC(=O)c1c(C)[nH]c(C(=O)CSc2nc3ccc(C)cc3[nH]2)c1C | 7.46 |
| CCCc1nc2oc3c(Cl)ncnc3c2c2c1CCCC2 | 11.2 |
| CS(=O)(=O)O.OC(CCN1CCCCC1)(c1ccccc1)c1ccccc1 | -13.9 |
| O=c1cc(Nc2ccc3c(c2)OCCO3)[nH]c(=O)n1Cc1ccc(F)cc1 | 1.16 |
| Cc1ccc(-c2noc(-c3ccccc3C(=O)N3CCN(C)CC3)n2)cc1 | -13.9 |
| COc1ccc(CCNC(=O)Cn2cnc3sc(C)c(-c4ccc(F)cc4)c3c2=O)cc1OC | 11.1 |
| Cc1ccn2c(c1)nc(=O)c1cc(S(=O)(=O)N3CCOCC3)ccc12 | 8.6 |
| COc1ccccc1/C=N/NC(=O)c1ccc(NC(=O)c2ccccc2Br)cc1 | 7.53 |
| COc1cc(C2c3c([nH]c(=O)[nH]c3=O)Nc3ccc4ccccc4c32)ccc1O (stereo not shown) | 0.257 |
| O=C(CNC(=O)c1ccccc1C(=O)O)c1ccccc1 | -4.41 |
| OCCC1CN(Cc2nc(-c3ccccc3)cs2)CCN1Cc1ccc(F)cc1 (stereo not shown) | -47.1 |
| CCOc1ccc(N(C(C)C(=O)N/N=C(\C)C(C)(C)C)S(C)(=O)=O)cc1 (stereo not shown) | 7.81 |
| O=C(NCc1ccco1)/C(=C/c1ccco1)NC(=O)c1ccco1 | 9.62 |
| COc1ccc(CNC(=O)OCCN2CCN(Cc3ccccc3)CCC2=O)cc1 | -8.62 |
| O=C(NCCC(=O)N1CCCC(C(F)(F)F)C1)c1ccc(Br)cc1 (stereo not shown) | 6.81 |
| COc1ccc(C2N(S(=O)(=O)c3ccc(C)cc3)CCN2S(=O)(=O)c2ccc(C)cc2)cc1 | -0.113 |
| Cc1cc(C)c(C)c(S(=O)(=O)NC2CCN(Cc3ccccc3)CC2)c1C.Cl | 6.53 |
| COc1ccc(CN2CCC(n3nccc3NC(=O)CCCc3ccccc3)CC2)cc1C | -67.3 |
| O=C(O)c1cccc(N2C(=O)C3CC=CCC3C2=O)c1 (stereo not shown) | -1.07 |
| Cc1cc(C)c2c(N)c3cccc(C)c3nc2n1 | -29.8 |

| Structure (SMILES) | hERG current change (%, negative = inhibition) at 1uM [%] |
| --- | --- |
| CCOC(=O)N1CCN(C(=O)C2CCN(S(=O)(=O)c3cc(OC)ccc3OC)CC2)CC1 | 10.1 |
| C=CCNC(=S)N(Cc1ccccc1)Cc1ccccc1 | 7.39 |
| CCCCc1nc(SCC(=O)Nc2ccc(S(N)(=O)=O)cc2)n[nH]1 | -0.301 |
| Cc1cc(O)c(/C=N/Nc2ccc(Cl)cc2)c(=O)o1 | 11.5 |
| Cc1ccc(C(=O)c2c(NC(=O)c3ccccc3C)sc(C)c2C)cc1 | -0.94 |
| CCN(CC)CCCN=Cc1c(O)n(-c2ccccc2F)c(=O)[nH]c1=O | 17.5 |
| O=C(O)CCC(=O)Nc1ccccc1C(=O)NC1CCCCC1 | 10 |
| O=C(CNC(=O)c1cccc(Br)c1)N/N=C/c1cn[nH]c1-c1ccccc1 | 3.87 |
| COc1ccc(OC)c(C2C=C(C34CC5CC(CC(C5)C3)C4)NC(=S)N2)c1 (stereo not shown) | 3.55 |
| CS(=O)(=O)Nc1ccccc1NS(C)(=O)=O | 14.1 |
| COC(=O)c1cc(C(=O)OC)n(Cc2ccc(Cl)cc2Cl)n1 | 9.47 |
| Cl.OC(CNCc1ccccc1)COCc1ccc(Cl)cc1 (stereo not shown) | -8.21 |
| O=C(Nc1ccccc1N1CCN(c2ccccc2)CC1)C1CCCCC1 | 2.39 |
| Cc1ccc(N2C(=O)C(NC(=O)c3ccccc3F)(C(F)(F)F)C3=C2CC(C)(C)CC3=O)cc1 (stereo not shown) | 14.9 |
| COc1cc(/C=N/OCC(=O)Nc2ccc(OC(F)F)cc2)ccc1OCc1ccccc1 | 6.59 |
| COc1ccc(CCNC(=O)c2nn(C)cc2Cl)cc1 | -2.84 |
| COc1cccc(CN2CC(C(=O)NCCCc3ccc(C)cc3)CCC2=O)c1 (stereo not shown) | 5.43 |
| Cc1cc(OCCN2CCCC2)ccc1[N+](=O)[O-].O=C(O)C(=O)O | 7.94 |
| CCc1nnc(NC(=O)c2cccc(S(=O)(=O)N(C)c3ccc(OC)cc3)c2)s1 | 16.3 |
| C=CCn1cccc(C(=O)Nc2cc(OC)c(OC)c(OC)c2)c1=O | 16.3 |
| CC(=NCC1CCCO1)c1c(O)n(C2CCCCC2)c(=O)[nH]c1=O (stereo not shown) | 5.45 |
| Cc1ccc(NS(=O)(=O)c2ccc(OCC(=O)NCc3ccco3)cc2)cc1 | 10.7 |

| Structure (SMILES) | hERG current change (%, negative = inhibition) at 1uM [%] |
| --- | --- |
| Cc1cc(C)c(OCCCCN2CCNCC2)c(C)c1.O=C(O)C(=O)O | 14.5 |
| O=C(Nc1ccc(N2CCCC(O)C2)cc1)c1snc2c(=O)[nH]cnc12 (stereo not shown) | 14.3 |
| CCN1CCN(c2cc(C)c3cc(NC(=S)N(CC)CC)ccc3n2)CC1 | -8.83 |
| CC(C)[C@H](NC(=O)c1ccccc1)C(=O)Nc1ccc2c(c1)OCO2 | 9.3 |
| CCCCn1c(=O)[nH]c(=O)c2c(C(=O)OCC)cc(-c3cccs3)nc21 | 4.54 |
| CSc1nc(C)c(CCO)c(=O)[nH]1 | 14 |
| Cc1ccccc1Cn1c2ccccc2c2cnn(CC(=O)NCCCN3CCOCC3)c(=O)c21 | -19 |
| CC(C)CCNC(=O)C(NS(=O)(=O)c1ccc2c(c1)c(=O)n(C)c(=O)n2C)c1ccccc1 (stereo not shown) | 11 |
| COc1ccc(Br)cc1CNC(=O)Cc1c(C(=O)O)[nH]c2ccc(Cl)cc12 | 5.01 |
| O=C(Cc1ccc(S(=O)(=O)N2CCOCC2)s1)Nc1ccc2c(c1)CCC2 | 6.72 |
| O=C(NC1CCCC1)C(=O)N(Cc1cccnc1)C(C(=O)NCc1ccco1)c1ccccc1F (stereo not shown) | -0.265 |
| Cc1sc2nc(SCC(N)=O)n(-c3ccccc3)c(=O)c2c1C | 15.8 |
| CC(C)C(=O)Nc1c(-c2ccccc2Cl)c(=O)c2ccccc2n1C | 9.62 |
| Cc1ccccc1NC(=S)NC(=O)C1CCCCC1 | 4.7 |
| O=C(CCCN1C(=O)/C(=C/c2cccs2)SC1=S)Nc1cccnc1 | 15.6 |
| COc1cccc(OCC(=O)O)c1 | 3.71 |
| COc1ccccc1-c1cc(C(=O)N2CCN(c3ccc(F)cc3)CC2)no1 | -4.87 |
| CCNc1nc(NCC)n2c(SCC(=O)NCC3CCCCC3)nnc2n1 | 12.8 |
| CC(=O)Nc1ccc2nc(SCC(=O)NCCOc3ccccc3)sc2c1 | -1.86 |
| CCOC(=O)c1nnc(-c2ccccc2)nc1Sc1c(Cl)cccc1Cl | 12.1 |
| C/C(=C\c1ccc(Br)cc1)C(=O)c1c(C)cc(C)[nH]c1=O | 17 |
| COC(=O)CSc1nnc(-c2ccncc2)n1N | 15.5 |

| Structure (SMILES) | hERG current change (%, negative = inhibition) at 1uM [%] |
| --- | --- |
| CCc1ccc(OCCNC(=O)c2ccco2)cc1 | 10.8 |
| CN1CCN(c2ncccc2S(=O)(=O)N2CCCCC2)CC1 | 9.59 |
| Cc1ccc(NC(=O)N2CCCC2c2cccs2)cc1 (stereo not shown) | 11.5 |
| CCNS(=O)(=O)c1ccc(OC)c(C(=O)NC2CCCCC2)c1 | 12.1 |
| Cc1nn(CC2CC2)c(=O)n1-c1ccc(Cl)cc1 | 7.79 |
| COC(=O)Nc1ccccc1C(=O)N1CCN(c2ccc(C)cc2)CC1 | 12.7 |
| COc1cc(SC)ccc1C(=O)Nc1c(Cl)cncc1Cl | 5.57 |
| CC1=C(C(=O)Nc2ccc(C)cc2C)C(c2cccc([N+](=O)[O-])c2)n2nc(C(=O)OC(C)C)nc2N1 (stereo not shown) | 2.47 |
| O=C(O)c1cc2sccc2s1 | 10.6 |
| Clc1ccsc1-c1ccnc(-n2cccc2)n1 | 5.32 |
| FC(F)(F)c1ccc(C2[C@H]3CN(Cc4cccnc4)[C@H](c4ccccc4)C34CC2(c2ccccc2)C4)cc1 (stereo partly shown) | 6.58 |
| Nc1cc2c3c(cccc3c1)C(=O)N(CCN1CCCC1)C2=O | 12.9 |
| Cc1ccc(NC(=O)COC(=O)CN2CSCC2=O)cc1C | 3.93 |
| Cc1ccc(C(=O)N[C@H](C(=O)OCC(=O)Nc2cccc(S(N)(=O)=O)c2)C(C)C)cc1 | -9.8 |
| O=C(OCn1nnc2ccccc2c1=O)c1ccc2ncsc2c1 | 6.96 |
| COc1ccc(-c2csc(-n3ncc(-c4cccs4)c3N)n2)cc1 | 14.9 |
| COc1ccc(N(CC(=O)NC2CCCC2)C(=O)Cn2nnc(-c3ccc(OC)c(OC)c3)n2)cc1 | 8.01 |
| COc1cccc(C(=O)O/N=C(\N)c2ccc([N+](=O)[O-])cc2)c1 | 14.9 |
| O=C(COc1ccccc1[N+](=O)[O-])N/N=C/c1cccs1 | 12 |
| COc1ccc(N2CCN(C(=O)CN=C3NS(=O)(=O)C(c4ccc(C)cc4)=C3C)CC2)cc1 | 3.2 |
| CC(C)c1ccc(CN2CCN(C(=O)CSc3nnnn3C3CC3)CC2)cc1 | -11.1 |
| Cc1ccc(C(=O)NCCn2c(N)c(C#N)c3nc4ccccc4nc32)cc1 | 12.9 |
